Results from the supplement of paper PMC10126150.
Values marked as one replicate rest on one cluster of the flow cell; about a third of the high ones do not repeat.

What follows are sequences tested on ATP (assay: switch fluorescence ratio, 500 uM ATP over buffer (Cy3 cluster intensity, sum of 5 cycles each) (fold (ratio)); higher = stronger signal-on switching upon ATP binding; sequences stand for … in TCGTCGGCAGCGTCAGATGTGTATAAGAGACAGTTTTTTTTTTTTTTTTTTTTTTTTT…TC). Conditions: aptamer strand: ATP DNA aptamer (quencher-CACCTGGGGGAGTATTGCGGAGGAAGG + anchor), 100 nM annealed; ATP concentration: 500 uM; one replicate.
Method in brief: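 The quencher-labelled ATP aptamer, at 100 nM, was annealed to Cy3-labelled switching-strand clusters on a modified Illumina MiSeq flow-cell. The clusters were imaged in selection buffer, then after 15 min with 500 uM ATP at 22 °C, and this buffer/ATP cycle ran five times with NaOH stripping and re-annealing between runs. Per-cluster fluorescence ratios, summed target-cycle over summed buffer-cycle Cy3 intensity, were averaged per switch-domain sequence. Clusters outside 100-1000 RFU were excluded.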
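Note: ATP exposure 15 min at 22 °C before imaging.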

Sequence | switch fluorescence ratio
CCTGTTGCTT | 1.02
TGAATGGCC | 1.02
CATAAGTCCT | 1.02
GTGTTCGAT | 0.982
TGATGTAATC | 0.988
TGCATCAGCG | 0.981
GAGTACTTAA | 1.01
AGAGCTAAGA | 1
AATTCCTGCC | 1.49
ATGCTAGTAT | 0.976
TCTGTACTCT | 1.01
GGGTAAAGCG | 0.968
GGAGTAGCCA | 0.979
AATGCGGTGC | 1.02
TGACTCGGGA | 1
GTGAAAGCA | 1.04
GTCAACATTA | 1.01
AGCGCGGCTG | 0.951
GGAACGACTA | 1.03
TTGGACTCAG | 1.08
TTTGGGAAG | 1.02
CGGGTCCTAG | 1.03
CGTTTTTTAC | 1.07
GCTTGTTGCT | 0.99
AGAAGACCCA | 1.03
CCCATTAGTG | 1.13

Sequence | switch fluorescence ratio
GATCATGATC | 1.02
TGTCCACAGC | 1.06
GTTCCATTTG | 0.975
CTCGATTTGA | 0.985
TTAGGGTGCG | 1.04
TTACAATTAT | 0.989
AGCGGTTGCG | 1.07
CACGTCTATG | 1.05
AGTTTGGTCG | 0.953
TTGTACGTCG | 1.01
GATAGCATCT | 1.01
GCACTGGGAC | 1.14
TGTGGCATTG | 1.02
ACAAAGACGG | 1.11
GCTGTTAGGA | 1.04
AAATTTTCTG | 1.04
CTAGGAAAA | 0.983
TAGCACGATC | 1.06
AAATCACTTT | 0.991
TCTCTAATTT | 0.976
TAGTTCATAC | 1.05
CGTACACCTT | 1.13
CTAAACTGCA | 1.03
CAGCTGTCA | 0.991
GGATAGAGG | 0.96
ACGATCCCGA | 1.01

Sequence | switch fluorescence ratio
AGGGATTATA | 0.97
CGAAGGATAA | 1.22
ACTGGCCAGA | 0.988
CATTTCGCAA | 1.06
GGCTTAGAAC | 1.02
TGGGCGCGCG | 1
TTGGCTTATT | 0.993
CCAGGTCACG | 0.998
TGGTTGTCTG | 0.95
ATTGAAGAGC | 0.922
TGTCCTTTCT | 1.76
TGGTGTTCGT | 0.977
ATCACATCAA | 1.02
CGTTGGCTTC | 0.999
TCTATGCGTT | 1.06
CACCCCATCA | 1.06
AAATCGCGG | 0.975
GATCAGCCAA | 1.04
TTAAGATTGA | 0.978
ATACGAGGCC | 1.08
TAGTGTGTTA | 1.03
CTGTTTAAAT | 1.01
AATGTCTGAT | 0.973
GACTACAGAC | 1.15
TTGGGCAAC | 1.04
GATTCTGG | 0.964

Sequence | switch fluorescence ratio
TCAGTGTCAG | 1.02
CTCTAGACCT | 1.37
GCAACAGTTC | 0.979
CACGCTATGG | 1.56
CGTAATATGT | 1.1
CGCGGCTACG | 0.996
TCTTTAGTGG | 1.02
CTCTCTGGTA | 1.05
AATAGGTGGT | 0.985
GATGGCTGGT | 0.949
AGAGGTGGTC | 1
GCACATTGCG | 0.983
GAGTTAGGTA | 0.989
GGCTCAGCTT | 1.08
AGGTTCGCCA | 0.972
ATGGAGGGT | 1.01
ACCCCGCTTG | 1.14
GTTACAGCTC | 1.07
TTGGCCTAGG | 1.03
CGAAGGCACC | 1.13
GTTCGGCAAC | 1.17
CAGAATTATA | 0.979
AGTTAGAACT | 1
TCGCGGGATT | 1.01
TGTAGGGCTT | 0.996
AAGTACTAGA | 1.24

Sequence | switch fluorescence ratio
GTAGTAAAAG | 0.986
ACAGCCCCCC | 1.05
CGCACCAGCC | 1.08
AAGCGGTTGA | 1.04
GTGGATTCTC | 1.01
TCAGAAAATA | 0.993
TTAGCCTTTG | 0.994
GATACAGAAG | 1.04
TGCATGATAC | 2.97
GAAGGATTCG | 1.03
ACGAGGATAG | 1.05
TTACACGGCA | 1.09
TGGGCGAAG | 1.05
TTCAGCAAAG | 1.12
TACCGAAGAT | 1.99
GGTTAGTGCT | 0.947
GCAGGACCGG | 1.08
ATAAGGATTA | 0.996
AAAAATTACA | 1.03
CTGTCAATAG | 6.03
TTCGTAAGCT | 1.07
TGGAAGGAAC | 1
ATTCGTCCAA | 1.05
AGATAGGGCG | 1.05
CCTGTGTATG | 1
TAGATCATCT | 0.984

Sequence | switch fluorescence ratio
GTGTTCAAGT | 0.979
CCGCCCGAGC | 4.67
TGTTATATTT | 0.99
TAAGATAAAG | 1.03
AGCTTCGCGA | 1.09
CAGGGCGTCA | 1
GTCGGCCTGT | 1.02
GGAATTTATG | 1.01
CCTCTCGGTA | 2.48
TGCGAAACGC | 1.02
GCAACTATAC | 2.19
TGTCATG | 0.992
TTAACTGAGG | 1
TCGAGTAACC | 1.04
ATCGTTACGG | 1
AGATTGGATT | 1.02
GGATAGTTCG | 1.06
TTACGGAGAC | 1.24
CGTCGCTTAT | 1.21
ATCAGAACGT | 1.01
TAAAGTGATG | 1.01
GTTATCGACG | 1.05
GCATTATGGC | 1.05
